Among all 310,000 compounds or so, about 2,200 (0.71%) showed an effect of 50% or more. The effect is printed as a negative number. The list shows a part of the results.

From PMC4336329 (PLoS ONE, 2015) come the findings set out here.

Sequence of human ether-à-go-go-related gene (hERG) potassium channel (Q12809 whole entry, looked up): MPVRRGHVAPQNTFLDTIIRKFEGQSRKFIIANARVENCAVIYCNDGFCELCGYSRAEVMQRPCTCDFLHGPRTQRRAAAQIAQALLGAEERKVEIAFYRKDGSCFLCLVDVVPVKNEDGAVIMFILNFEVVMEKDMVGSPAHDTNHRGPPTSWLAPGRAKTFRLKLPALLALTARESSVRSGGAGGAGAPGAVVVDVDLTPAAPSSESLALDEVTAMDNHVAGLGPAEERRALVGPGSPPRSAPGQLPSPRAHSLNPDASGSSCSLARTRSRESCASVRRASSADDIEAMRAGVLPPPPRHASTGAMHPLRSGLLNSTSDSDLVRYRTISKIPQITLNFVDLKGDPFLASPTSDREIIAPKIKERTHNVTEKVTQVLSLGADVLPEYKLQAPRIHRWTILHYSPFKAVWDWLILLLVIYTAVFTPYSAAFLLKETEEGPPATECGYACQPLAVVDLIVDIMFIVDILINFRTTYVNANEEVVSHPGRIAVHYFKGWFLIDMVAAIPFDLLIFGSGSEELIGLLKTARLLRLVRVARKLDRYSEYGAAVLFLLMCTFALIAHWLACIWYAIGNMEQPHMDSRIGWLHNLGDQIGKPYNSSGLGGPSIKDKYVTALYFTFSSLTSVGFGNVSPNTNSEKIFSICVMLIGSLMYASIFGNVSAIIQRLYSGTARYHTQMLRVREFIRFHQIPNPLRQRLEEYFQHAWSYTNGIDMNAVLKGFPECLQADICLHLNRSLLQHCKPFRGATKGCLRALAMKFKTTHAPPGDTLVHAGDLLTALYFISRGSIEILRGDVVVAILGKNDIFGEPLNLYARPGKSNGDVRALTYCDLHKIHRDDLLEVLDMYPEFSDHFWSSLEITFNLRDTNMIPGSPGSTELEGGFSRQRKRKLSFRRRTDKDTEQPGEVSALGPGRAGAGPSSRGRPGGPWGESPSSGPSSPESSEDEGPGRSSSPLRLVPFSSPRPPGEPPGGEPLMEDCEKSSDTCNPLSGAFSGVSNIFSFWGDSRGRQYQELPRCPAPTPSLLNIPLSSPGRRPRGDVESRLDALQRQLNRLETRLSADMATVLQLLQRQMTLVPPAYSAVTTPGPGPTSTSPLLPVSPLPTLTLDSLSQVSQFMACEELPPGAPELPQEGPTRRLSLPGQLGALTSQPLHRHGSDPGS

The test concerns the target human ether-à-go-go-related gene (hERG) potassium channel (human, UniProt Q12809). Kind of test: primary screen, population patch clamp on CHO cells stably expressing hERG.
On to `O=C(Nc1ccc2oc(-c3cccnc3)nc2c1)c1ccc(Br)o1`, for which the “hERG current change (%, negative = inhibition) at 1uM” value is 7.57%.
The figure for `CSc1ccccc1NC(=O)COc1nsnc1N1CCOCC1` is 14.1%; for `CCN(CC)S(=O)(=O)c1ccc(N2CCCC2)c(C(=O)OCC(=O)N2CCCC2)c1` it is 3.11%; for `Cc1onc(-c2ccccc2Cl)c1C(=O)Nc1ccccc1O` it is 8.58%.
The value for `CCn1cnc2c([N+](=O)[O-])c(NS(=O)(=O)c3ccc(C)cc3)ccc21` was 7.56%; that for `Cl.O=C(NCc1ccccc1)N1CCNCC1` was 11.1%; that for `O=S(=O)(NCc1cc(-c2ccccc2Cl)no1)c1ccccc1` was 9.21%.
`Cc1ccc(SCC(=O)OCC(=O)N(C)CC(=O)Nc2ccccc2Cl)cc1`: the “hERG current change (%, negative = inhibition) at 1uM” value is on record as 9.66%.
As for `O=C1N(CC(=O)N2CCc3ccccc32)CCN1Cc1ccccc1Cl`, the “hERG current change (%, negative = inhibition) at 1uM” value is listed as 8.38%.
With `Cc1ccc(S(=O)(=O)Cc2ccc(C(=O)N3CCc4ccccc4C3)o2)cc1`, the “hERG current change (%, negative = inhibition) at 1uM” value was -30.2%.
The value for `COCCN(C(=S)Nc1ccc(OC)cc1)C1CCN(C(C)C)CC1` was 6.3%; that for `O=S(=O)(NC1CCCCC1)c1cccs1` was 9.05%.
The value for `O=C(NCC1CCCO1)c1cccnc1Nc1ccccc1F` (centres unmarked) was 5.82%.
The figure for `Cc1ccc(S(=O)(=O)N2CCC(NC(=O)OC(C)C)CC2)cc1` is 16.6%; for `O=C1c2cccc3cccc(c23)C(=O)N1c1ccncc1` it is -2.52%; for `CCN1C(=O)C(CC(=O)Nc2ccc(OC)cc2)N(CCc2ccc(F)cc2)C1=S` (centres unmarked) it is 7.48%.
Turning to `CCC(CC)c1nc(C#N)c(NCc2ccccc2)o1`, the “hERG current change (%, negative = inhibition) at 1uM” value is given as 15.6%.
The value for `CCOC(=O)/C(N=Nc1c(C)n(C)n(-c2ccccc2)c1=O)=C(/O)c1ccccc1` was 11%; that for `O=C(COC(=O)C12CC3CC(CC(C3)C1)C2)Nc1ccc([N+](=O)[O-])cc1Br` was 13.2%.
In the case of `CCOC(=O)CNC(c1ccccc1)c1cc(Br)ccc1NC(=O)CCN1CCOCC1` (centres unmarked), the “hERG current change (%, negative = inhibition) at 1uM” value is -11%.
`Cc1ccc(CNC(=O)c2ccc(N3CCC4(CC3)CC(c3ccccc3)=NO4)c(NC(=O)c3c(Cl)cccc3Cl)c2)cc1`: the “hERG current change (%, negative = inhibition) at 1uM” value is 20.8%.
The value for `CNS(=O)(=O)c1cccc(C(=O)NCC(c2cccs2)N2CCOCC2)c1` (centres unmarked) was 5.39%; that for `Fc1ccc(/C=N/NC(=S)Nc2ccc(Cl)cc2)cc1F` was 19.2%.
The value for `Cc1cc(OCC(=O)Nc2cccc(S(=O)(=O)NC3=NCCCCC3)c2)ccc1Cl` was 6.32%.
The figure for `O=S(=O)(NCCNS(=O)(=O)c1cccs1)c1cccs1` is 0.511%; for `COc1ccc(NC(=S)NNC(=O)OC(C)(C)C)cc1OC` it is 11.6%.
Take `CN(C1CCCCC1)S(=O)(=O)c1ccc2c(c1)c(=O)c(C(=O)NCCN1CCCC1)cn2C`: the “hERG current change (%, negative = inhibition) at 1uM” value is -3.61%.
The value for `O=C(CN1CCC(n2nnc3cc(C(F)(F)F)ccc32)CC1)N1CCc2ccccc21` was -12.7%; that for `CCOc1ncccc1C(=O)OCC(=O)Nc1cccc(S(N)(=O)=O)c1` was 12.6%.
The figure for `O=C(NC(=S)Nc1cccnc1)c1cc2ccccc2o1` is 12.5%.
Turning to `CC(Cc1ccccc1)[n+]1cc(/N=C(\N)[O-])on1` (centres unmarked), the “hERG current change (%, negative = inhibition) at 1uM” value turned out to be 12.5%.
For `COc1cccc(NC(=S)NN2CCN(C)CC2)c1`, the “hERG current change (%, negative = inhibition) at 1uM” value was 10.3%.
The value for `COc1cc(NC(=O)c2ccccc2)c(OC)cc1NC(=O)Cc1ccc(Br)cc1` was 11.7%; that for `COc1ccc(CN2CCN(Cc3cc(=O)oc4cc(C)ccc34)CC2)c(OC)c1OC` was -87.6%.
For `COc1cccc2cc(C(=O)NC3CC4CCC3C4)oc12` (centres unmarked), the “hERG current change (%, negative = inhibition) at 1uM” value was 9.59%.
The value for `S=C(Nc1ccccc1)N1CCC(C2CCN(C(=S)Nc3ccccc3)CC2)CC1` was 13.5%; that for `COc1ccc(NC(=O)c2cc(OC)c(OC)c(OC)c2)cn1` was 4.22%; that for `Cc1c(C(=O)O)sc2nc3n(c(=O)c12)CCC3` was 13.1%.
In the case of `CCOC(=O)Cn1c(=O)oc2cc(S(=O)(=O)N3CCN(C(=O)c4ccco4)CC3)ccc21`, the “hERG current change (%, negative = inhibition) at 1uM” value was -2.6%.
The figure for `CC(=O)c1ccc(OCC(O)Cn2nnc3ccccc32)cc1` (centres unmarked) is 9.77%; for `Cc1cc(OCC(=O)N2CCOCC2)c(C(C)C)cc1Cl` it is 1.82%.
In the case of `O=c1c2cccnc2[nH]c(=S)n1CCC1=CCCCC1`, the “hERG current change (%, negative = inhibition) at 1uM” value is on record as 2.72%.
The value for `COc1cccc2sc(Nc3nc4ccc(NC(C)=O)cc4s3)nc12` was 22.8%; that for `Cc1cc(N2CCOCC2)nc(-c2ccc(Br)cc2)n1` was 13.9%; that for `COc1cccc(/C=C2\CCc3ccccc3C2=O)c1` was 19.5%.
The value for `CCO/C=C1/C(=O)N(C)C(=O)c2cc(OC)ccc21` was 16.6%; that for `CC(C)n1cc(/C=N/NC(=O)COc2cccc3cccnc23)c2ccccc21` was 15.7%; that for `CC1=CC(C)(C)N(C(=O)c2ccc(F)cc2)c2cc3c(cc21)OCO3` was 3.64%.
The figure for `O=C(Nc1cccnc1)C1(F)C(F)(F)C(F)(F)C(F)(F)C(F)(F)C1(F)F` is 7.88%.
Turning to `CCOC(=O)c1sc(NC(=O)CCSC)nc1C`, the “hERG current change (%, negative = inhibition) at 1uM” value is recorded as 7.09%.
`O=C(NC1CCCC1)C(c1cc2c(cc1[N+](=O)[O-])OCO2)N1CCCC1` (centres unmarked): the “hERG current change (%, negative = inhibition) at 1uM” value was 0.223%.
The value for `COc1ccc(Cl)cc1NC(=O)CN1CCCC1.Cl` was 7.56%.
The figure for `Cc1ccc(S(=O)(=O)c2ccc(Cl)cc2)cc1S(=O)(=O)N1CCOCC1` is 3.5%; for `C=CCn1c(SCc2nc3sc(C(=O)O)c(C)c3c(=O)[nH]2)nnc1-c1ccc(C(C)(C)C)cc1` it is 1.36%.
The value for `CCOC(=O)c1cnc(SCC(=O)c2ccc3c(c2)OCCO3)nc1N` was 2.65%; that for `CN(C)C(=O)c1cc(C(=O)c2ccc(C(F)(F)F)cc2)c[nH]1` was 12.3%.
As for `COc1cccc(-c2nn(C)c3sc(C(=O)NCc4ccc(C)o4)cc23)c1`, the “hERG current change (%, negative = inhibition) at 1uM” value was 6.13%.
The figure for `Cc1[nH][nH]c(=O)c1N=Nc1ccc(Br)c(Cl)c1` is 14.4%; for `COc1cc(C(=O)NCc2ccc(C)cc2)ccc1OCc1c(C)noc1C` it is -3.69%; for `Cc1ccn2c(C(=O)N/N=C\c3ccccc3[N+](=O)[O-])c(C)nc2c1` it is -2.47%.
As to `COc1ccc(NC(=O)C(c2ccccc2)c2ccccc2)c(OC)c1`, the “hERG current change (%, negative = inhibition) at 1uM” value is on record as 13.8%.
The value for `Cc1cc(OC(C)C(=O)NCC(O)c2ccccc2)c2c3c(c(=O)oc2c1)CCCC3` (centres unmarked) was 11.6%; that for `CN(C(=O)c1ccc(Cl)cc1)C1=CCCCC1CCC#N` (centres unmarked) was 0.644%; that for `COc1cccc(-c2cc(C(=O)Nc3cccnc3)no2)c1` was 8.94%.
The figure for `O=C(O)CNC(=O)c1ccc(NC(=O)/C(=C/c2ccccc2)NC(=O)c2ccco2)cc1` is 1.44%.
Regarding `O=C(Nc1nnc(-c2ccco2)o1)c1cccc(N2C(=O)CCC2=O)c1`, the “hERG current change (%, negative = inhibition) at 1uM” value was -1.01%.
The figure for `Cc1ccc2[nH]c(=O)c(CN(c3cccc(C)c3C)S(=O)(=O)c3ccccc3)cc2c1` is 10.2%; for `COc1cc(C(=O)NCc2cn3ccsc3n2)cc(OC)c1OC` it is 19.9%; for `COc1cc(CC(=O)Nc2sccc2C(N)=O)cc(OC)c1OC` it is 8.31%.
On to `NS(=O)(=O)c1cc(C(=O)OCC(=O)Nc2ccc(Cl)cc2[N+](=O)[O-])ccc1Cl`, for which the “hERG current change (%, negative = inhibition) at 1uM” value was -6.86%.
The value for `O=C(c1ccccc1)N1CCN=C1c1ccccc1` was 8.17%; that for `CCOC(=O)C1CCN(C(=O)c2ccc(OCC(=O)Nc3ccc(OCC)cc3)c(OC)c2)CC1` was 0.466%.
The figure for `O=C(COc1ccc(Cl)cc1Cl)NC(=O)c1ccccc1` is 9.53%.
The value for `N#CC(c1ccccc1)N(CCCCl)C(=O)c1ccccc1` (centres unmarked) was 6.07%; that for `Cc1ccc(Cl)cc1NC(=O)C(NS(=O)(=O)c1cccs1)c1ccccc1` (centres unmarked) was 12.3%.
As to `CCC(=O)NNC(=O)Cc1c(C)n(C(=O)c2ccc(Cl)cc2)c2ccc(OC)cc12`, the “hERG current change (%, negative = inhibition) at 1uM” value was 15.9%.
The figure for `CC1(c2ccccc2)NC(=O)N(CCN2C(=O)c3ccccc3C2=O)C1=O` (centres unmarked) is 9.35%; for `C[N+]1(CC2COC(c3ccco3)O2)CCCCC1.[I-]` (centres unmarked) it is 17.4%.
The value for `O=C(Nc1ccc(F)cc1F)c1ccccc1NC(=O)C1CC=CCC1C(=O)O` (centres unmarked) was 10.7%.
In the case of `COc1ccc2c([N+](=O)[O-])c(Cl)[nH]c2c1`, the “hERG current change (%, negative = inhibition) at 1uM” value stood at 18.7%.
The value for `Cc1ccc(C(=O)N2C(=S)C(c3ccc(F)cc3)=NC23CCN(C)CC3)cc1` was 3.79%; that for `O=C(NCc1ccccc1Cl)C1CCN(S(=O)(=O)N2CCCC2)CC1` was 12.1%.
As for `Cc1ccc(-c2nc3ccsc3c(=O)o2)cc1`, the “hERG current change (%, negative = inhibition) at 1uM” value was 16.9%.
For `CCc1nc2nc(C)c(NS(=O)(=O)c3ccc(CC(C)C)cc3)c(=O)n2[nH]1`, the “hERG current change (%, negative = inhibition) at 1uM” value stood at 12.4%.
The figure for `Cc1nnc(SCC(=O)NC2CCCC2)n1C(C)C` is 13.2%; for `CC(C)(C)c1ccc(C(=O)NCCN2CCCC2)cc1.Cl` it is 9.03%.
The value for `O=C(OCc1ccc(F)cc1)c1cc2ccccc2cc1O` was 12.5%.
With `Cc1nc2scc(-c3cccs3)c2c(=O)n1-n1cccc1`, the “hERG current change (%, negative = inhibition) at 1uM” value is 0.336%.
The value for `CCCn1c(-c2nonc2N)nc2ccccc21` was 3.96%.
